# Results: the supplement of paper PMC9174493
# This is one part of the list. Single values of this set are uncertain. Values with irradiation are relative to irradiated vehicle.
# Tested on: A549-Dual
# Assay: NF-kB reporter (SEAP) activity, viability-corrected, relative to vehicle (fold change vs vehicle); higher = more activation of STING-IRF / NF-kB immune response reporter
# Conditions: 1 µM; irradiation: none
# 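Also: viability correction based on the alamar blue assay, with concentrations leaving 10% survival or less dropped.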
row,Compound,NF-kB reporter
1,C=CC(=O)Nc1cc(Nc2nccc(-c3cn(C)c4ccccc34)n2)c(OC)cc1N(C)CCN(C)C [Osimertinib (AZD9291)],1.01
2,CC1CC2C3CCC4=CC(=O)C=CC4(C)C3(F)C(O)CC2(C)C1(O)C(=O)COP(=O)([O-])[O-].[Na+].[Na+] (centres undefined) [Dexamethasone Sodium Phosphate],1.1
3,O=C(O)CCCN1CCC(OC(c2ccc(Cl)cc2)c2ccccn2)CC1.O=S(=O)(O)c1ccccc1 (centres undefined) [Bepotastine Besilate],2.11
4,CC(=O)OC(C)C(C)C(=O)OCC12C3CC4(C)C(=CCC5C6(C)CCC(OC7OC(C(=O)[O][Na])C(OC8OC(CO)C(O)C(O)C8O)C(O)C7OC7OCC(O)C(O)C7O)C(C)(CO)C6CCC54C)C1CC(C)(C)C(O3)C2O (centres undefined) [Sodium Aescinate],1.26
5,Nc1nc(CC(=O)Nc2ccc(CCNCC(O)c3ccccc3)cc2)cs1 (centres undefined) [Mirabegron],0.891
6,O=C1OC(OC(=O)c2cccnc2Nc2cccc(C(F)(F)F)c2)c2ccccc21 (centres undefined) [Talniflumate],0.773
7,CN1C(C(=O)Nc2ccccn2)=C(O)c2sccc2S1(=O)=O [Tenoxicam],1.2
8,CCC(=O)NS(=O)(=O)c1ccc(-c2c(-c3ccccc3)noc2C)cc1 [Parecoxib],1.02
9,CNCC(O)C(O)C(O)C(O)CO.Cc1c(Nc2ncccc2C(=O)O)cccc1C(F)(F)F [Flunixin Meglumin],0.889
10,Cc1cncc(CN2CCC(=C3c4ccc(Cl)cc4CCc4cccnc43)CC2)c1.O=C(O)/C=C/C(=O)O [Rupatadine Fumarate],0.763
11,COC(=O)CC(O)(CCCC(C)(C)O)C(=O)OC1C(OC)=CC23CCCN2CCc2cc4c(cc2C13)OCO4 (centres undefined) [Homoharringtonine],1.13
12,CC(C(=O)[O-])c1ccc(CC2CCCC2=O)cc1.[Na+] (centres undefined) [Loxoprofen Sodium],1.01
13,C=C1c2cccc(O)c2C(=O)C2=C(O)C3(O)C(=O)C(C(N)=O)=C(O)C(N(C)C)C3C(O)C12.Cl (centres undefined) [Methacycline HCl],1.51
14,CC1CCC2(C(=O)OC3OC(COC4OC(CO)C(OC5OC(C)C(O)C(O)C5O)C(O)C4O)C(O)C(O)C3O)CCC3(C)C(=CCC4C5(C)CC(O)C(O)C(C)(CO)C5CCC43C)C2C1C (centres undefined) [Asiaticoside],1.24
15,Nc1nc(F)nc2c1ncn2C1OC(CO)C(O)C1O (centres undefined) [Fludarabine],1.02
16,O=NN(CCCl)C(=O)NC1CCCCC1 [Lomustine],0.925
17,O=CC(O)C(O)C(O)C(O)COC1OC(CO)C(O)C(O)C1O (centres undefined) [Melibiose],0.986
18,O.S=c1nc[nH]c2nc[nH]c12 [6-Mercaptopurine (6-MP) Monohydrate],1.08
19,CC(C(=O)O)c1cccc(C(=O)c2ccccc2)c1 (centres undefined) [Ketoprofen],0.871
20,CNC1CCC(c2ccc(Cl)c(Cl)c2)c2ccccc21.Cl (centres undefined) [Sertraline HCl],0.851
21,CC1(C)OC2CC3C4CCC5=CC(=O)CCC5(C)C4(F)C(O)CC3(C)C2(C(=O)CCl)O1 (centres undefined) [Halcinonide],0.84
22,CC(=O)OC12COC1CC(O)C1(C)C(=O)C(O)C3=C(C)C(OC(=O)C(O)C(NC(=O)OC(C)(C)C)c4ccccc4)CC(O)(C(OC(=O)c4ccccc4)C21)C3(C)C (centres undefined) [Docetaxel],2.42
23,CCN(CC)Cc1cc(Nc2ccnc3cc(Cl)ccc23)ccc1O.Cl.Cl [Amodiaquine hydrochloride],0.898
24,Cc1c(N)c(=O)n(-c2ccccc2)n1C [4-Aminoantipyrine],0.978
25,Cn1cnc2c(F)c(Nc3ccc(Br)cc3F)c(C(=O)NOCCO)cc21,1.48
26,CC1(C)C2CCC1(C)C(O)C2 (centres undefined) [Borneol],1.24
27,CC1CC2C3CCC4=CC(=O)C=CC4(C)C3(Cl)C(O)CC2(C)C1(OC(=O)c1ccco1)C(=O)CCl (centres undefined) [Mometasone furoate],0.669
28,CCN(CC)CCCC(C)Nc1ccnc2cc(Cl)ccc12.O=P(O)(O)O.O=P(O)(O)O (centres undefined) [Chloroquine Phosphate],1.29
29,"COc1cc2c(cc1Cc1cccc(Cl)c1F)c(=O)c(C(=O)O)cn2C(CO)C(C)C (centres undefined) [Elvitegravir (GS-9137, JTK-303)]",0.979
